# In all, about 310,000 compounds went through this assay and about 14,000 (4.5%) showed an effect of 50% or more. Effects have a minus sign here. The list shows a part of the results.
# Target: human ether-à-go-go-related gene (hERG) potassium channel (human, UniProt Q12809)
# Test: primary screen, population patch clamp on CHO cells stably expressing hERG
# 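Also: peak tail current of the secondary pulse compared with the same well before compound.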
# Chain of human ether-à-go-go-related gene (hERG) potassium channel (Q12809 whole entry, looked up): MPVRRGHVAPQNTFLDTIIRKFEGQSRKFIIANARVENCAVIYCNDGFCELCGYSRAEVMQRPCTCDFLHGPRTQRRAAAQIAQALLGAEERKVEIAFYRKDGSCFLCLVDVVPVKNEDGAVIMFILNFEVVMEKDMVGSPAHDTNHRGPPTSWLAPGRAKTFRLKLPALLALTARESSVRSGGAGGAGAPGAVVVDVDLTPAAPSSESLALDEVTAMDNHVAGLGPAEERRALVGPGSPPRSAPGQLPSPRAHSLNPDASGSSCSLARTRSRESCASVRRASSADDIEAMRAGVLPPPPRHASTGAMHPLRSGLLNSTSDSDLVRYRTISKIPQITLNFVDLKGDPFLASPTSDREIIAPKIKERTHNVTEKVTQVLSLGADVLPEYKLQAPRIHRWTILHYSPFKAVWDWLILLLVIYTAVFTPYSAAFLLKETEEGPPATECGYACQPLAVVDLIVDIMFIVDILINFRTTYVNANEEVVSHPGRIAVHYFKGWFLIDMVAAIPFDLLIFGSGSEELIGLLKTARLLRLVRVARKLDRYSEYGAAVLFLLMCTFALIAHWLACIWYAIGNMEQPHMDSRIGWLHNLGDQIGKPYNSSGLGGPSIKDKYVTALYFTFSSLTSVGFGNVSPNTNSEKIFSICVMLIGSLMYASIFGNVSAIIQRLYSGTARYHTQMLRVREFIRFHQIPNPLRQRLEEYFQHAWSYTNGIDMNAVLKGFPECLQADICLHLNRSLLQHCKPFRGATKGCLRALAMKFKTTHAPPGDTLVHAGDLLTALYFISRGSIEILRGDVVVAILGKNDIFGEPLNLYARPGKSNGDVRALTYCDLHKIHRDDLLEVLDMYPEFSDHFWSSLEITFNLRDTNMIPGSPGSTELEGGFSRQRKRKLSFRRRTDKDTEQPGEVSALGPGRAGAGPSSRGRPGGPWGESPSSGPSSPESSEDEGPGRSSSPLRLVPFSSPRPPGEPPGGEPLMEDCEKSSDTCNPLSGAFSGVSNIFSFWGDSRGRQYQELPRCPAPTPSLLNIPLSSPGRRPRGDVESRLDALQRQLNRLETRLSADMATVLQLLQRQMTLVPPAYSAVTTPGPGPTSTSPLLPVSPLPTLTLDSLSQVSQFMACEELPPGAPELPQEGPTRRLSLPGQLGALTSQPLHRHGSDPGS
row,SMILES,"hERG current change (%, negative = inhibition) at 10uM"
1,S=C(Nc1ccc(Oc2ccc(NC(=S)NC3CCCCC3)cc2)cc1)NC1CCCCC1,17.6%
2,Cc1nc2ccc(NC(=O)/C=C/C(=O)O)cc2nc1C,22.2%
3,COc1ccc(N2C(=O)CC(NNC(=O)c3ccc(Br)s3)C2=O)cc1 (stereo not shown),14.1%
4,O=C(Nc1ccccc1Cl)Nc1cccnc1Cl,22.1%
5,Cc1ccc(-c2cccc(CN3CCN(C4CCN(C(C)C)CC4)C(CCO)C3)c2)o1 (stereo not shown),-59.4%
6,O=C(NC1CCCCCCC1)c1c(Cl)cccc1Cl,7.78%
7,Cc1ccc(S(=O)(=O)CC(=O)c2ccccc2[N+](=O)[O-])cc1,24.9%
8,COc1ccccc1/C=C/C(=O)OCC(=O)Nc1ccccc1Sc1ccccc1,-1.93%
9,COc1cccc(CNC(=O)CN(C)S(=O)(=O)c2ccc(Br)s2)c1,-15.5%
10,CCOc1cc(CNS(=O)(=O)c2ccc3c(c2)CC(=O)N3C)cc(OCC)c1OCC,-34.2%
11,COCCn1c(=S)[nH]c2cc(C(=O)NC(C)C)ccc2c1=O,-4.4%
12,CN1C(=O)c2ccccc2Sc2ccc(C(=O)O)cc21,8.7%
13,O=C(C1=NOC(CNc2ncc(C(F)(F)F)cc2Cl)C1)N1CCOCC1 (stereo not shown),-9.41%
14,CC(=O)N1c2ccc(S(=O)(=O)N3CCC(C(=O)NCc4ccc(C)cc4)CC3)cc2CC1C (stereo not shown),-8.16%
15,COc1ccccc1C(=O)Nc1c2c(nn1-c1cccc(C)c1C)CS(=O)(=O)C2,-40.3%
16,COCCn1c(SCC(=O)N2CCc3ccccc3C2)nc2cc(Cl)ccc2c1=O,-25.4%
17,O=C(CN1C(=O)c2cccc3cccc1c23)N1CCN(Cc2ccc3c(c2)OCO3)CC1,-30.1%
18,COc1cc(O)c(C(CC(=O)N2CCCC2)c2ccc3c(c2)OCO3)c(OC)c1 (stereo not shown),6.4%
19,Cn1c(=O)oc2cc(S(=O)(=O)N3CCC(C(=O)NCc4cccs4)CC3)ccc21,-11%
20,COc1cc(NC(=O)CSc2nnnn2-c2ccccc2)cc(OC)c1OC,-0.308%
21,Cc1nc2sc3c(=O)[nH]nnc3c2c(C)c1Br,15.5%
22,Cc1cc(C(=O)COC(=O)c2n[nH]c3ccccc23)c(C)n1CC1CCCO1 (stereo not shown),-9.56%
23,Cc1nn(C)c(Cl)c1CN1CCN(C2CCCC2)C(CCO)C1 (stereo not shown),-0.161%
24,COc1ccc(-n2c(Cn3nnc4ccccc43)n[nH]c2=S)cc1,16.6%
25,COc1ccccc1C(=O)NC(=O)COC(=O)c1nc(Cl)ccc1Cl,-3.23%
26,CC1(C)CC(=O)c2sc(NC(=O)CN3CCOCC3)nc2C1,-0.0618%
27,COc1ccc(NS(=O)(=O)c2cccc(C(=O)NCc3cccnc3)c2)cc1,-30.6%
28,O=C(ONC1=NCCCCC1)c1c(F)cccc1F,-3.7%

row,SMILES,"hERG current change (%, negative = inhibition) at 10uM"
1,Cc1cc(C(F)F)n2ncc(C(=O)NCCc3ccccc3Cl)c2n1,-56.7%
2,Cn1c(C=O)c(-c2ccc3cc[nH]c3c2)c2ccccc21,14.7%
3,Cc1ccc(C(C)C)c(OCC(=O)Nc2cccc(S(=O)(=O)NC3=NCCCCC3)c2)c1,-24.2%
4,O=[N+]([O-])c1ccc(NCCNCCOc2nonc2-c2ccccc2)c([N+](=O)[O-])c1,-68.6%
5,CCCCCSc1nnc(-c2ccccc2N)c(=O)[nH]1,3.8%
6,CCN(CC(=O)Nc1c(F)cccc1F)C(=O)/C=C/c1ccc2c(c1)OCO2,-1.26%
7,O=C(CSc1ccc(C(F)(F)F)cc1[N+](=O)[O-])Nc1ccc2ccccc2c1,1.99%
8,Cc1ccc(NC(=O)c2ccccc2N2C(=O)C3C4C=CC(C5CC45)C3C2=O)cc1C (stereo not shown),2.91%
9,O=[N+]([O-])c1ncccc1OCc1ccc(-c2ccccc2)cc1,27.1%
10,CNCC(O)COc1ccccc1 (stereo not shown),-5.69%
11,CC(C)Oc1ccc(CN2CCC(n3nccc3NC(=O)C3CC3)CC2)cc1,-79.4%
12,Cc1nn(-c2ccccc2)c(Cl)c1C1C(C#N)=C(N)Oc2n[nH]c(C)c21 (stereo not shown),-7.18%
13,O=[N+]([O-])c1c(C(Cl)Cl)nn(-c2ccccc2)c1N1CCCC1,1.65%
14,Cc1c(C(=O)Nc2cccnc2)oc2ccc(Br)cc12,5.09%
15,N#CC(C#N)=c1ccc2c(c1)N1C3=C(CCCC3)CC3CCCCC31N=2 (stereo not shown),-2.33%
16,Cc1ccc(Cl)cc1N1CCN(C(=O)C(=O)N2CCCCC2)CC1,-7.25%
17,CC1(C)CC2(CCO1)OC(=O)CC2C(=O)Nc1ccc(Cl)cc1[N+](=O)[O-] (stereo not shown),-3.18%
18,COc1cc(/C=C2/CCC/C(=C\c3cc(O)c(OC)c(Cl)c3)C2=O)cc(Cl)c1O,13.7%
19,CCC1Oc2ccc(C)cc2N(CC(=O)N2CCOCC2)C1=O (stereo not shown),4.58%
20,O=c1[nH]c(=O)n(-c2ccccc2Cl)c(O)c1C=NCCN1CCCCC1,6.09%
21,C=C(C)CNC(=S)N/N=C/c1ccccc1OCC(=O)O,16.2%
22,O=C(CCc1ccc(S(=O)(=O)NCCc2ccccc2)cc1)Nc1ccc2c(c1)OCCO2,3.63%
23,COC(=O)c1ccc(C2=NOC(C)(c3sc(-c4ccc(Cl)cc4)nc3C)C2)cc1 (stereo not shown),7.59%
24,CCOC(=O)C1=NN(c2ccc(Cl)cc2)C(c2ccccc2)CC1=O (stereo not shown),-5.12%
25,CCSCCNC(=O)c1cc(-n2cnnc2)ccc1Cl,0.76%
26,O=C(Nc1ccc(F)cc1)c1cccc(N2C(=O)C3C4CCC(C4)C3C2=O)c1 (stereo not shown),-15%
27,Cc1cc(NC(=O)CSCC(=O)Nc2ccc(C)c(C)c2)no1,-0.691%

# Reference: article PMC4336329 (PLoS ONE, 2015)
